From a compilation of properties of binary mixtures (doi:10.1021/je990135o)
Values joined by “and” are separate entries in the source; they are usually repeats but may differ in a detail not shown here. Identical values can stand only once. Some of these densities may be calculated back from excess volumes.

Test: xn = mol fraction of the nth substance listed
Settings: 100 kPa

CCOCCOCCO + CCOC(=O)OCC
mass density [kg/m3]
Settings | 298.15 K | 313.15 K
x2 = 0.0965 | 983 | 969.4
x2 = 0.1542 | 982.2 | 968.4
x2 = 0.2391 | – | 966.8
x2 = 0.2392 | 981 | –
x2 = 0.2849 | 980.3 | –
x2 = 0.3288 | 979.6 | 965.1
x2 = 0.3515 | 979.3 | 964.7
x2 = 0.3915 | 978.7 | –
x2 = 0.4728 | 977.4 | 962.3
x2 = 0.489 | 977.1 | –
x2 = 0.563 | – | 960.6
x2 = 0.6131 | – | 959.5
x2 = 0.6771 | 974 | –
x2 = 0.6772 | – | 958.2
x2 = 0.7176 | 973.3 | 957.4
x2 = 0.8007 | 972 | 955.7
x2 = 0.8124 | 971.8 | 955.5
x2 = 0.9011 | 970.4 | 953.8
x2 = 0.9506 | 969.8 | 953
x2 = 0.9728 | 969.5 | 952.7

CCCCOCCOCCO + CCOC(=O)OCC
mass density [kg/m3]
Settings | 298.15 K | 313.15 K
x2 = 0.088 | 949.5 | 936.6
x2 = 0.1518 | – | 937.5
x2 = 0.2932 | 952.9 | 939.4
x2 = 0.3666 | 954.2 | –
x2 = 0.4433 | 955.7 | –
x2 = 0.4507 | 956.9 | –
x2 = 0.5071 | – | 942.4
x2 = 0.5249 | 957.2 | 942.7
x2 = 0.6202 | 959.2 | –
x2 = 0.6668 | 960.2 | 945
x2 = 0.7118 | – | 945.8
x2 = 0.7668 | – | 946.8
x2 = 0.8246 | 964 | 948
x2 = 0.8781 | 965.4 | 949.2
x2 = 0.9027 | 966.1 | 949.7
x2 = 0.9299 | – | 950.4
x2 = 0.9633 | – | 951.3
x2 = 0.9788 | 968.5 | 951.7

COCCO + CCOC(=O)OCC
mass density [kg/m3]
Settings | 298.15 K | 313.15 K
x2 = 0.0363 | – | 946.2
x2 = 0.2143 | 961.4 | –
x2 = 0.2656 | 961.8 | –
x2 = 0.3182 | 962.2 | 946.8
x2 = 0.35 | 962.4 | 946.9
x2 = 0.4686 | 963.3 | –
x2 = 0.5319 | 963.8 | 947.7
x2 = 0.6976 | 965.3 | –
x2 = 0.7641 | 966 | 949.4
x2 = 0.7995 | 966.4 | 949.8
x2 = 0.8638 | 967.2 | 950.5
x2 = 0.9122 | 967.9 | 951.1

CCCCOCCO + CCOC(=O)OCC
298.15 K
Settings | mass density [kg/m3]
x2 = 0.1281 | 897.9
x2 = 0.188 | 901.7
x2 = 0.2375 | 904.9
x2 = 0.3051 | 909.2
x2 = 0.3957 | 915.2
x2 = 0.4851 | 921.3
x2 = 0.5123 | 923.2
x2 = 0.5654 | 926.9
x2 = 0.8141 | 945.4
x2 = 0.8928 | 951.7
x2 = 0.9265 | 954.4

COCCOCCO + CCOC(=O)OCC
298.15 K
Settings | mass density
x2 = 0.0319 | 1007.7 kg/m3
x2 = 0.0651 | 1012.8 kg/m3 and 999.3 kg/m3
x2 = 0.1234 | 1003.2 kg/m3
x2 = 0.1799 | 1000.3 kg/m3
x2 = 0.2191 | 998.4 kg/m3
x2 = 0.2541 | 1003.8 kg/m3
x2 = 0.2946 | 994.6 kg/m3
x2 = 0.3852 | 990.1 kg/m3
x2 = 0.4116 | 988.8 kg/m3
x2 = 0.4555 | 986.6 kg/m3
x2 = 0.5699 | 980.9 kg/m3
x2 = 0.6378 | 977.6 kg/m3
x2 = 0.7767 | 965.3 kg/m3
x2 = 0.8898 | 965.5 kg/m3
x2 = 0.931 | 963.7 kg/m3

CCOCCO + CCOC(=O)OCC
mass density [kg/m3]
Settings | 298.15 K | 313.15 K
x2 = 0.0418 | 927.1 | 913.2
x2 = 0.1202 | – | 916.6
x2 = 0.1775 | 933.6 | 919
x2 = 0.252 | 937 | –
x2 = 0.311 | 939.6 | 924.5
x2 = 0.3643 | – | 926.6
x2 = 0.4085 | 943.9 | 928.4
x2 = 0.4827 | 947.1 | 931.3
x2 = 0.5248 | 948.8 | 933
x2 = 0.5889 | 951.5 | 935.5
x2 = 0.6474 | 954 | 937.8
x2 = 0.7004 | 956.2 | 939.8
x2 = 0.7783 | 959.5 | 942.9
x2 = 0.8084 | 960.7 | –
x2 = 0.9025 | 964.8 | 948
x2 = 0.9629 | – | 950.6
